Reference: PubChem BioAssay AID504832 (National Center for Advancing Translational Sciences (NCATS), 2011)
Among all 310,000 compounds or so, about 18,000 (5.8%) were called active. Inconclusive means that the source gave no clear call. Such entries were picked first, then a sample of the others. Calls follow the shape of the dose curve; as a rule, active = well fitted inhibition curve with a large enough effect; inconclusive = small, poorly fitted or top-dose-only effect, or another doubt; inactive = no such curve, though single readings can be large or run the other way. Potencies of inconclusive entries are left out as doubtful fits.

Test: Primary qHTS for delayed death inhibitors of the malarial parasite plastid, 48 hour incubation
Settings: P. falciparum luciferase growth in erythrocytes; series mostly up to 28.7 µM
Summary of the method: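 Compounds are pin-transferred into medium, infected erythrocytes (2% hematocrit, 0.1% parasitemia final) are added, and plates sit one parasite generation at 37 C in 5% CO2. Detection reagent is then added and luminescence measured.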
% is scaled to controls: 0 for no effect and ±100 for the full control effect; potency is read from the fitted curve at half-maximal effect; tags tell the direction and shape of the fitted curve.

Row | Compound | Potency | activity change, negative = inhibition
1 | Cc1ccc(CNC(=O)c2ccc[nH]2)cc1 | inactive | –
2 | COc1cccc(OCCOc2ccc(/C=C3\C(=N)N4N=C(S(C)(=O)=O)SC4=NC3=O)cc2OC)c1 | inconclusive [inhibitor, partial curve, poor fit] | –
3 | CC(=O)c1ccc(Nc2c3c(c(C#N)c4nc5ccccc5n24)CCC3)cc1 | active: 3.29 µM | –
4 | CCn1ncc(Cl)c1C(=O)Nc1cc([N+](=O)[O-])ccc1OC | inactive | –
5 | CC(C)(O)C#Cc1ccc(C(=O)NCCC(=O)O)s1 | – | inactive: 22.3% [at 5.75 µM]
6 | CCOC(=O)CNc1nc(-c2ccncc2)nc2ccccc12 | inconclusive [inhibitor, single point] | –
7 | COc1cc(/C=C/C(=O)NC(=O)c2ccccc2O)ccc1OC(C)=O | inactive | –
8 | COc1ccc(N2CCN(C(=O)COC(=O)c3cccc(S(=O)(=O)Nc4cccc(C)c4)c3)CC2)cc1 | inactive | –
9 | COc1ccccc1OC(=O)CCc1nc2ccccc2s1 | active: 10.4 µM | –
10 | O=C1CC(c2ccccc2)CN1C(=O)c1ccccc1 (stereo not drawn) | inactive | –
11 | COc1cc2c(C(=O)N(C)c3ccc(F)cc3)cn(C)c(=O)c2cc1OC | inactive | –
12 | Cn1nc(C(F)(F)F)c(/C=N/OC(=O)c2ccccc2)c1Sc1ccc(Cl)cc1 | inconclusive [inhibitor, partial curve] | –
13 | COc1ccc(OC)c(NC(=O)C2CC(=O)N(Cc3ccco3)C2)c1 (stereo not drawn) | inconclusive [inhibitor, single point] | –
14 | NNC(=O)C1CC(O)CN1S(=O)(=O)c1ccc(Cl)cc1 (stereo not drawn) | inconclusive [inhibitor, full curve, poor fit] | –
15 | CC(=O)Nc1ccc(CNc2ncnc3ccc(-c4c(C)noc4C)cc23)cc1 | inconclusive [inhibitor, partial curve, poor fit] | –
16 | COc1ccc(-c2nnc(NC(=O)Cc3ccccc3)o2)cc1 | inconclusive [inhibitor, single point] | –
17 | COc1ccc(C2N(C(C)=O)CCCN2S(=O)(=O)c2ccc(C)cc2)cc1 (stereo not drawn) | inconclusive [inhibitor, single point] | –
18 | COc1nc(Nc2cccc(F)c2)nc(OC)n1 | inactive | –
19 | COc1ccc2c(C(=O)c3ccc(C)cc3)n(CCCC(N)=O)[n+]([O-])c2c1 | inconclusive [inhibitor, single point] | –
20 | CCC(=O)N1CCC2(CC1)Oc1ccc(Cl)cc1C(=O)C21CC(c2ccc(Cl)cc2)=NO1 (stereo not drawn) | inconclusive [inhibitor, single point] | –
21 | Cc1ccc(S(=O)(=O)NCC(c2cccnc2)N2CCN(Cc3ccccc3)CC2)cc1 (stereo not drawn) | inconclusive [inhibitor, partial curve] | –
22 | CCCCN1CC(=O)N2[C@H]3c4cc(Cl)ccc4OC[C@@H]3[C@H](c3ccccc3)[C@]2(C)C1=O | inconclusive [inhibitor, single point] | –
23 | Cc1ccsc1/C=C(\C#N)C(=O)NC1CCS(=O)(=O)C1 (stereo not drawn) | inconclusive [inhibitor, full curve, poor fit] | –

Row | Compound | Potency | activity change, negative = inhibition
24 | O=C(CSc1nc2ccccc2c(=O)n1CCC(=O)N1CCN(c2ccccc2)CC1)NCC1CCCO1 (stereo not drawn) | inconclusive [inhibitor, partial curve, poor fit] | –
25 | Cc1cccc(N(Cc2cc3ccccc3[nH]c2=O)C(=O)c2cccs2)c1 | inconclusive [inhibitor, single point] | –
26 | CC1=C(c2ccccc2)C(=S)NC(C)(C)C1 | inconclusive [inhibitor, partial curve, poor fit] | –
27 | CCn1cnc2c1c(=O)n(Cc1nnc3n1-c1ccccc1SC3)c(=O)n2Cc1ccccc1 | inconclusive [inhibitor, partial curve] | –
28 | Cc1nn(Cc2ccccc2Cl)c(C)c1C(=O)N1CCN(c2ccccc2)CC1 | inconclusive [inhibitor, full curve, poor fit] | –
29 | CN(C)CCCN(C(=O)c1ccc(S(=O)(=O)N(C)Cc2ccccc2)cc1)c1nc2cc3c(cc2s1)OCO3 | inconclusive [inhibitor, single point] | –
30 | CCC(C)(C)NC(=O)CN(Cc1ccco1)C(=O)CCC(=O)Nc1nccs1 | inactive | –
31 | O=C(C1CCN(S(=O)(=O)c2cccnc2)CC1)N1CCN(c2ccc(Cl)cc2)CC1 | inconclusive [inhibitor, partial curve] | –
32 | CC(C)c1ccc2oc(=O)cc(CN3CCN(c4ccc(F)cc4)CC3)c2c1 | active: 13.1 µM | –
33 | CCN(CC(=O)NC1CCS(=O)(=O)C1)C(=O)c1cc(OC)c(OC)c(OC)c1 (stereo not drawn) | inactive | –
34 | CSCCCc1cn([C@@H](CO)C(=O)NCCCCCCCCCCC(=O)N2CCNCC2)nn1 | active: 14.7 µM | –
35 | CCOc1ccccc1NC(=O)COc1ccc(S(=O)(=O)N2CCCC2)cc1 | inconclusive [inhibitor, single point] | –
36 | CCCCCc1ccc(C(=O)CCCC)c(=S)[nH]1 | inconclusive [inhibitor, single point] | –
37 | COc1ccc(S(=O)(=O)N2CCC3(CC2)CC(=O)c2ccccc2O3)cc1 | inactive | –
38 | Cc1c(OCC(=O)N2CCC(C(=O)O)CC2)ccc2c1oc(=O)c1ccccc12 | inactive | –
39 | CCCCC(CC)COS(=O)(=O)O (stereo not drawn) | inactive | –
40 | COCCn1c(-c2ccc(Cl)cc2)nc2oc3cc(OC)ccc3c(=O)c2c1=O | inconclusive [inhibitor, partial curve, poor fit] | –
41 | CCCC1(C(=O)OCC)NC(c2ccc(N(C)C)cc2)C2C(=O)N(c3ccccc3)C(=O)C21 (stereo not drawn) | inconclusive [inhibitor, partial curve] | –
42 | O=C(NCc1ccc2c(c1)OCO2)c1c(F)c(F)c(F)c(F)c1F | inactive | –
43 | CCC1CCCCN1C(=O)CSc1nnc(-c2ccc(Cl)s2)o1 (stereo not drawn) | inactive | –
44 | Cn1c(=O)c2c3c(sc2n2c(SCC(N)=O)nnc12)CC(C(C)(C)C)CC3 (stereo not drawn) | inconclusive [inhibitor, partial curve, poor fit] | –
45 | CCCn1c(N/N=C\C=C\c2ccccc2)nc2c1c(=O)[nH]c(=O)n2C | inconclusive [inhibitor, single point] | –
46 | CC(C)(C)C(=O)N1CCN(c2ncccc2C(F)(F)F)CC1 | inconclusive [inhibitor, single point] | –

Row | Compound | Potency | activity change, negative = inhibition
47 | C[C@H]1[C@H](OC(=O)CCC(=O)NCc2ccc(C(=O)O)cc2)O[C@@H]2O[C@@]3(C)CC[C@H]4[C@H](C)CC[C@@H]1C24OO3 | active: 0.0185 µM | –
48 | COc1ccc(NC(=O)C2CCCN(C(=O)c3ccc(Cl)cc3)C2)cc1Cl (stereo not drawn) | inconclusive [inhibitor, single point] | –
49 | CC(C)OC(=O)CSc1nc2ncc(Cl)cc2[nH]1 | inconclusive [inhibitor, full curve, poor fit] | –
50 | Cc1cc(Br)ccc1SCC(=O)N1CCN(S(=O)(=O)c2ccccc2)CC1 | inconclusive [inhibitor, single point] | –
51 | Cc1cccc(N(C(=O)C(F)(F)F)C(C(=O)NC2CCCCC2)c2cccs2)c1 (stereo not drawn) | inconclusive [inhibitor, single point] | –
52 | O=C(c1ccco1)N1CCN(C(=O)C(c2ccccc2)c2ccccc2)CC1 | inconclusive [inhibitor, partial curve] | –
53 | CCCn1cnc2c(c1=O)c1nc3ccccc3nc1n2CCC1=CCCCC1 | inconclusive [inhibitor, partial curve, poor fit] | –
54 | Cc1ccc(S(=O)(=O)NCC(=O)OCC(=O)Nc2ccc3c(c2)OCCO3)cc1 | inactive | –
55 | CC(C)N(CC(N)=O)c1ccc(S(=O)(=O)N2CCCC2)cn1 | inconclusive [inhibitor, partial curve, poor fit] | –
56 | Cc1oc(=O)c(NC(=O)c2ccc(Cl)cc2)cc1C(=O)c1ccccc1 | inconclusive [inhibitor, full curve, poor fit] | –
57 | N=Cc1c(O)n(-c2cccc(Cl)c2)c(=O)[nH]c1=O | inactive | –
58 | O=C(CNCc1ccco1)Nc1cccc(S(=O)(=O)N2CCCCC2)c1 | inactive | –
59 | Cc1ccc(-n2c(SCC(N)=O)nc3c([nH]c4ccccc43)c2=O)cc1 | inconclusive [inhibitor, partial curve, poor fit] | –
60 | O=C(N1CCOCC1)C12CCC3CC(CC(C3)C1)C2 | inactive | –
61 | COc1ccc(CCNC(=O)C2CC(=O)N(C3CCCCCCC3)C2)cc1OC (stereo not drawn) | inconclusive [inhibitor, partial curve] | –
62 | COc1ccc(OCc2cc(C(=O)N3C[C@H]4CC[C@H]3C4)no2)c(Cl)c1 | inactive | –
63 | COc1ccccc1NC(=O)Cn1cncc1-c1ccc([N+](=O)[O-])cc1 | inactive | –
64 | O=C(CN(C(=O)c1csnn1)c1ccc(F)cc1)NCCc1ccccc1 | inactive | –
65 | COc1ccc(OC)c(-c2cc(C(=O)NC3CCCC3)c3ccccc3n2)c1 | inconclusive [inhibitor, single point] | –
66 | Cc1sc2nc(CSCC(=O)Nc3ccc(N4CCOCC4)cc3)[nH]c(=O)c2c1C | inconclusive [inhibitor, partial curve, poor fit] | –
67 | Cc1ccc(NC(=O)COc2ccccc2C(N)=O)cc1S(=O)(=O)N1CCCCCC1 | inconclusive [inhibitor, partial curve] | –
68 | COc1cc(NC(=O)COC(=O)c2ccccc2SCC(=O)N2CCCC2)cc(OC)c1 | inconclusive [inhibitor, single point] | –
